Data taken from PubChem BioAssay AID588855 (National Center for Advancing Translational Sciences (NCATS), 2011).
In all, about 410,000 compounds went through this assay and about 5,000 (1.2%) were called active. Inconclusive means that the source gave no clear call. Such entries were picked first, then a sample of the others. Calls follow the shape of the dose curve; as a rule, active = well fitted inhibition curve with a large enough effect; inconclusive = small, poorly fitted or top-dose-only effect; inactive = no such curve, though single readings can be large or run the other way. A potency beside an inconclusive call is a rough fit, not a confirmed value.

Test: qHTS for Inhibitors of TGF-b; also: nearly all actives have a fitted effect of over 65% in size
Conditions: HepG2 CAGA-GFP TGF-b/SMAD3 reporter, GFP fluorescence, 18 h, TGF-beta stimulated, 500 pg/mL final; series mostly up to 46.1 µM
Outline: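 HEPG2 CAGA-GFP, 1000 cells/well; 2 h settle, 37 C; cpd via pin tool; TGF-b 500 pg/mL final; 18 h, 37 C; GFP imaging ex488/em500-530; %Activity normalised to -TGF-b and +DMSO controls; CRC fit, curve class.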
Potency is read from the fitted curve at half-maximal effect; tags tell the direction and shape of the fitted curve.

Row | Compound | Potency
1 | COc1cccc2sc(N3CCN(C(=O)c4ccc([N+](=O)[O-])o4)CC3)nc12 | inconclusive: 35.5 µM [inhibitor, single point]
2 | Cc1ccc2nc(-c3cccc(Br)c3)c(Cc3ccccc3)n2c1 | inconclusive: 22.4 µM [inhibitor, partial curve, poor fit]
3 | CCN(C[C@H]1N[C@@](Cc2ccccc2)(C(=O)OC)[C@H]2C(=O)N(Cc3ccccc3)C(=O)[C@@H]12)C(=O)COc1ccccc1 | inconclusive: 35.5 µM [inhibitor, single point]
4 | CCn1cc(C(=O)N2CCN(c3ccccc3)CC2)c(=O)c2cc(S(=O)(=O)N(C)C3CCCCC3)ccc21 | inconclusive: 0.562 µM [inhibitor, full curve, poor fit]
5 | O=C(NC1CCCC1)c1cc2c(ccc3ccccc32)o1 | inconclusive: 35.5 µM [inhibitor, single point]
6 | Cc1ccc2c(CNCc3cccs3)c(C(=O)O)n(Cc3ccc(F)cc3)c2c1 | inconclusive: 35.5 µM [inhibitor, single point]
7 | CC(C)c1ccc(C(=O)N2CCCN(C(=O)c3ccc(C(C)C)cc3)CC2)cc1 | inactive
8 | S=c1[nH]nc(-c2ccco2)n1/N=C/c1ccc(Cl)cc1 | inactive
9 | CCOC(=O)C1(Cc2ccccc2C(F)(F)F)CCN(CC(O)CO)CC1 (stereo unspecified) | inconclusive: 35.5 µM [inhibitor, single point]
10 | COc1cc(NCCC(=O)c2cccs2)c(OC)cc1Cl | inconclusive: 20 µM [inhibitor, single point]
11 | Cc1ccc(NC(=O)COc2ccc3oc4c(c3c2)CCCC4)c(C)c1 | inactive
12 | C/C(=N\NC(=O)Cc1ccc(F)cc1)c1ccc(O)cc1 | inactive
13 | OC(c1ccc(Cl)c(F)c1)c1ncc(-c2ccccc2Cl)[nH]1 (stereo unspecified) | inconclusive: 17.8 µM [inhibitor, single point]
14 | COc1ccc(C#Cc2cnc3c(c2)C(=O)N([C@@H](C)CO)C[C@@H](C)[C@@H](CN(C)CC2CCOCC2)O3)cc1 | inactive
15 | OCc1ccnc2c(O)cccc12 | inconclusive: 28.2 µM [inhibitor, single point]
16 | Cc1cccc(CNC(=O)c2ccc(-c3nc(CS(=O)(=O)c4ccccc4)c(C)o3)cc2)c1 | inactive
17 | O=C1Cc2ccccc2C(=O)N1OCc1ccc(Cl)cc1Cl | inconclusive: 6.31 µM [inhibitor, single point]
18 | CCOC(=O)N1CCC(N(CCCOC)C(=O)Nc2ccc(CC)cc2)CC1 | inconclusive: 17.8 µM [inhibitor, single point]
19 | O=C(CC1Nc2ccccc2NC1=O)Nc1ccccc1 (stereo unspecified) | inconclusive: 11.2 µM [inhibitor, partial curve, poor fit]
20 | COc1ccc2[nH]cc(/C=C(/C#N)S(=O)(=O)c3ccccc3)c2c1 | inconclusive: 35.5 µM [inhibitor, single point]
21 | CCCc1ccc(Oc2c(-c3ccc(O)c(C)c3O)n[nH]c2C)cc1 | inconclusive: 35.5 µM [inhibitor, single point]
22 | COc1cccc(CN(C)CC(=O)Nc2ccccc2C(C)C)c1 | inactive
23 | COc1ccc(Cn2c(=O)[nH]c3cc(C(=O)Nc4ccc(N5CCN(C)CC5)cc4)ccc32)cc1 | inconclusive: 35.5 µM [inhibitor, single point]
24 | COc1ccc(OCC(=O)Nc2cccc(-c3nc4ccccc4[nH]3)c2)cc1 | inactive

Row | Compound | Potency
25 | CC1(C(=O)NS(=O)(=O)c2cccc(Cl)c2)CCN1C(=O)Cc1ccc(Cl)cc1Cl (stereo unspecified) | inactive
26 | Cc1cccc(C(=O)NC(=S)NNC(=O)c2ccc(Cl)cc2)c1 | inconclusive: 35.5 µM [inhibitor, single point]
27 | O=C(NC1=NCCS1)c1cc(-c2ccc(-c3ccccc3)cc2)nc2ccccc12 | inactive
28 | Cn1ncc(C(=O)N2CCN(c3ccccc3)CC2)c1C1CCN(C(=O)OC(C)(C)C)CC1 | inactive
29 | Clc1cccc(-c2cc3nc4c(c(NCc5ccco5)n3n2)CCCC4)c1 | inconclusive: 35.5 µM [inhibitor, single point]
30 | C=CCn1c(COc2ccccc2OC)nc2ccccc21 | inactive
31 | Cc1oc2c(c1C(=O)c1ccc(Cl)cc1)C(=O)C(=O)c1ccccc1-2 | inactive
32 | Cc1nn(-c2ccccc2)c(C)c1NC(=O)COC(=O)c1cc(Br)ccc1O | inactive
33 | C#Cc1cccc(C(=O)N2CCCC(CCC(=O)NCc3ccccc3F)C2)c1 (stereo unspecified) | inactive
34 | O=C(O)c1cccc2cccnc12 | inactive
35 | COc1cc(OC)c(OC)cc1CN1CCN(Cc2ccc(SC)cc2)CC1 | inconclusive: 25.1 µM [inhibitor, single point]
36 | Cc1cc(F)ccc1NC(=O)C1CCCN(c2nnc(-n3c(C)ccc3C)s2)C1 (stereo unspecified) | inconclusive: 12.6 µM [inhibitor, partial curve, poor fit]
37 | Clc1ccccc1-c1nn2c(-c3cc(-c4ccccc4)n[nH]3)nnc2s1 | inconclusive: 1.41 µM [inhibitor, full curve, poor fit]
38 | CCOC(=O)c1[nH]c2ccc(OCC)cc2c1NC(=O)CN1CCCC(C)C1 (stereo unspecified) | inactive
39 | CCOc1ccc(NC(=O)CN(C)C(=O)c2ccc(OCC3CCCO3)cc2)cc1OCC (stereo unspecified) | inconclusive: 35.5 µM [inhibitor, single point]
40 | Cc1cc(C)c(S(=O)(=O)Nc2ccc(Cl)cn2)c(C)c1 | inconclusive: 10 µM [inhibitor, partial curve, poor fit]
41 | CCOC(=O)c1nc(-c2ccccc2)sc1C(C)=O | inactive
42 | COc1ccc(CN(C)Cc2cc(=O)oc3cc(C)c(C(C)C)cc23)cc1OC | inconclusive: 35.5 µM [inhibitor, single point]
43 | COC(=O)c1sccc1S(=O)(=O)N(CC(=O)Nc1ccc(C)cc1)c1ccccc1 | inactive
44 | CSCCC(NC(=O)COc1ccccc1)C(=O)N(C)CC(=O)Nc1c(C)cccc1C (stereo unspecified) | inactive
45 | COc1ccccc1N1CCN(C(=O)CCn2cnc3onc(-c4ccc(F)cc4)c3c2=O)CC1 | inconclusive: 12.6 µM [inhibitor, single point]
46 | O=C(COC(=O)c1ccc(Cl)s1)c1cc2ccccc2o1 | inconclusive: 1.41 µM [inhibitor, partial curve, poor fit]
47 | Cc1ccc(CCNC(=O)c2cc(-c3ccncc3)nc3ccc(S(=O)(=O)N4CCOCC4)cc23)cc1 | inactive
48 | O=C(C(Sc1ccccc1)c1ccccc1)N1CCN(c2ccccc2)CC1 (stereo unspecified) | inactive

Row | Compound | Potency
49 | COc1ccc(NC(=O)C2CCN(S(=O)(=O)c3ccc(N4CCCC4=O)cc3)CC2)c(OC)c1 | inactive
50 | Cc1ccc(C(=O)OC(C)CN2CCOCC2)cc1 (stereo unspecified) | inconclusive: 28.2 µM [inhibitor, single point]
51 | Cc1ccc(/C=c2\sc3nc(-c4ccco4)nn3c2=O)o1 | inconclusive: 3.16 µM [inhibitor, single point]
52 | S=C(NCc1ccccc1)NNc1ccccc1 | inconclusive: 15.8 µM [inhibitor, single point]
53 | CN(C)S(=O)(=O)c1ccc(N2CCCC2)c(C(=O)Nc2nc3ccccc3s2)c1 | inconclusive: 15.8 µM [inhibitor, partial curve, poor fit]
54 | O=C(/C=C\c1ccco1)Nc1nc(-c2ccccc2)cs1 | inactive
55 | Cc1ccc(-c2c(C(=O)N3CCN(c4cccc(C)c4C)CC3)oc(=O)c3ccccc23)cc1 | inactive
56 | Cc1cccnc1C(c1ccc(F)cc1)N(C)C(=O)C1CCN(CCOc2ccc(Cl)cc2Cl)CC1 (stereo unspecified) | inconclusive: 35.5 µM [inhibitor, single point]
57 | O=C(NCCN1CCN(c2ccc([N+](=O)[O-])cc2)CC1)NCc1ccccc1 | inconclusive: 11.2 µM [inhibitor, partial curve, poor fit]
58 | CCc1noc(C)c1C(=O)Nc1nc2ccc(F)cc2s1 | inactive
59 | COc1ccc(OCC(=O)OCC(=O)NC2CCCCC2C)cc1 (stereo unspecified) | inactive
60 | CCC(=O)N1CCc2cc(Br)cc(S(=O)(=O)NCCc3ccccc3Cl)c21 | inconclusive: 11.2 µM [inhibitor, partial curve]
61 | O=C(Nc1cc(=O)[nH]c2nc(-c3ccccc3)nn12)c1ccccc1Cl | inactive
62 | O=C(CSc1nc(-c2ccccc2)c(-c2ccccc2)[nH]1)NCc1ccco1 | inconclusive: 8.91 µM [inhibitor, partial curve, poor fit]
63 | COC(=O)C1=C(C)N(CCCC(=O)O)C(=O)NC1c1ccccc1OS(=O)(=O)c1ccccc1[N+](=O)[O-] (stereo unspecified) | inactive
64 | O=S(=O)(c1ccc(NC(=S)NCc2ccco2)cc1)N1CCCCC1 | inconclusive: 35.5 µM [inhibitor, single point]
65 | Cc1ccc(NC(=O)Cn2cc([N+](=O)[O-])nc2C)cc1C | inactive
66 | Cc1c(NC(=O)c2cc(-c3cccs3)nc3ccccc23)c(=O)n(-c2ccccc2)n1C | inactive
67 | COc1ccc(Cc2c(-c3ccc(F)cc3)nc3c4ccccc4ccn23)c(C)c1 | inconclusive: 14.1 µM [inhibitor, partial curve, poor fit]
68 | Cn1c(N)c(C(=O)COC(=O)CNS(=O)(=O)c2cccc(Cl)c2)c(=O)n(C)c1=O | inconclusive: 1.12 µM [inhibitor, partial curve, poor fit]
69 | CC1=C(C(=O)Nc2cc(C(=O)N3CCN(c4cccc(C)c4C)CC3)ccc2C)SCCO1 | inconclusive: 14.1 µM [inhibitor, partial curve, poor fit]
70 | Cc1cccc(NC(=S)NCCN(C2CCCCC2)C2CCCC2)c1 | active: 17.8 µM
71 | COc1ccc(CNn2c(-c3ccccc3F)nc3ccccc3c2=O)cc1OC | inactive
